From PubChem BioAssay AID1159614 (National Center for Advancing Translational Sciences (NCATS), 2016)
Out of some 45,000 compounds screened, about 65 (0.1%) were called active. Calls come from the whole dose curve; as a rule, active = well fitted activation curve with a large enough effect; inconclusive = small, poorly fitted or top-dose-only effect; inactive = no such curve, though single readings can be large or run the other way. The list shows a part of the results.

Target: Galactocerebrosidase (Homo sapiens) (UniProt P54803)
Sequence of UniProt P54803 (P54803 whole entry, looked up): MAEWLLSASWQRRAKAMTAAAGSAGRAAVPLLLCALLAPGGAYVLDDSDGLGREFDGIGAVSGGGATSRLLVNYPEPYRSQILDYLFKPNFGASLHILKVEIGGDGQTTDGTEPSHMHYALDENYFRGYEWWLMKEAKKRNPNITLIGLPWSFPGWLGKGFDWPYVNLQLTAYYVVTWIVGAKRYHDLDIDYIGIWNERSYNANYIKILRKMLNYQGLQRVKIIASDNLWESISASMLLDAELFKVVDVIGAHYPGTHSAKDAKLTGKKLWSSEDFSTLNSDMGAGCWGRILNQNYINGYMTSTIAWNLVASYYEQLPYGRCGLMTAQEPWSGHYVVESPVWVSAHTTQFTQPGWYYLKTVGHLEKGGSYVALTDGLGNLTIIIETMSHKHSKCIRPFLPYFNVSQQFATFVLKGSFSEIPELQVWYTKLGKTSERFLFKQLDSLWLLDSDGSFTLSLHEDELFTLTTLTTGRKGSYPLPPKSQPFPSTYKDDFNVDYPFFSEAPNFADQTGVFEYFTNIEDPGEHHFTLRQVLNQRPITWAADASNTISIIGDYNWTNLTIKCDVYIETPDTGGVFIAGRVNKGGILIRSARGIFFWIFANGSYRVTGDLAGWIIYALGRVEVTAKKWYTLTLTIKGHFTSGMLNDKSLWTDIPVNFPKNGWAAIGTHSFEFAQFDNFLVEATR
Assay: A Novel Cell-Based Assay to Identify Small Molecules for B -Galactocerebrosidase; note: 0% is about no effect; nearly all actives have a fitted effect of over 65% in size
Conditions: 145M-Twi-hGALC-G270D cells (Twitcher mouse brain line with human GALC G270D), HMU-beta-Gal fluorescence, 48 h; series mostly up to 57.5 µM; activation: at the top concentration
Summary of the method: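 Fluorogenic HMU-b-Gal hydrolysis (0.1 mM final, pH 5.2 citrate-phosphate with 1 mg/mL sodium taurocholate; carbonate stop buffer) measures mutant GALC activity after compound treatment of live 145M-Twi Twitcher brain cells stably carrying human GALC-G270D, with wild-type GALC line alongside; activation sought.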

activation, inactive:
COC(=O)c1ccc2c(=O)n(CCCCCC(=O)NC(C)C)c(=O)[nH]c2c1 -14.8%, O=C(NCc1ccccc1)N1CCc2c(sc3c2CCCC3)C1c1ccccc1 (centres undefined) -13.1%, Cc1cc(C)cc(NC(=O)CCS(=O)(=O)c2ccc3c(c2)oc(=O)n3C)c1 -16.5%, CCOc1ccc(/C=C/c2nc3ccccc3n2S(=O)(=O)c2cccc(Cl)c2)cc1 -16.6%, COc1ccccc1CNC(=O)c1ccc(Nc2nc3ccccc3n3nnnc23)cc1 -10.9%, CCOC(=O)c1cc(-c2ccc(OC)cc2)n(CCC(=O)Nc2ccc(OC)cc2OC)c1C -0.248%, CCOc1ccc(C(=O)Nc2ccc3nc(SCC(=O)N(C)c4ccccc4)sc3c2)cc1 -21.3%, CC(C)c1ccc(/C=C(\C#N)c2nc(-c3cc4ccccc4oc3=O)cs2)cc1 -15.7%, CC1CCN(S(=O)(=O)c2ccc3nc(Nc4cccc(C(F)(F)F)c4)ccc3c2)CC1 -21.1%, COc1cccc(-c2nc(SCC(=O)NC3CCCC3)c(-c3ccc(F)cc3)[nH]2)c1 -18.2%, COc1cc(NC(=O)CCc2c(C)nc3c4c(C)cc(C)nc4nn3c2C)cc(OC)c1 -0.324%, Cc1cc(C)cc(NC(=O)CCCn2nc(C)c3c(C)n(-c4ccccc4)nc3c2=O)c1 -13.2%, COc1ccc(NC(=O)CN(c2ccccc2OC)S(C)(=O)=O)c(OC)c1 -10.5%, CCOC(=O)C1(C)C=C(Nc2cccc(C)c2)C(=O)N1c1ccccc1 (centres undefined) -4.8%, COc1cc(-c2nnc(SCC(=O)Oc3ccc(C)cc3C)o2)cc(OC)c1OC -1.69%, Cc1ccc(CNC(=O)c2nc(S(=O)(=O)Cc3ccc(C)cc3)ncc2Cl)cc1 -14.5%, CCOC(=O)CCn1cnc2onc(-c3ccccc3Cl)c2c1=O -10.5%, CCOc1ccccc1NC(=O)C1=C(C)Nc2ncnn2C1c1ccccn1 (centres undefined) -6.59%, COc1ccc(C2=C(C)C(=O)N(Cc3ccc(C(=O)Nc4ccc(C)c(C)c4)cc3)S2(=O)=O)cc1 -24.2%, COc1cc(Cl)c(C)cc1NS(=O)(=O)c1c(C)nc2sccn2c1=O -11.3%, COC(=O)c1ccc(Nc2ncnc3c2cnn3-c2ccccc2)cc1 7.52%, COc1cc(OC)cc(-c2cc3nc(C)c(CCC(=O)Nc4ccc(F)c(Cl)c4)c(C)n3n2)c1 -20.3%, CC(C)c1ccc(NC(=O)C(NS(=O)(=O)c2ccc3c(c2)CCC(=O)N3)c2ccccc2)cc1 (centres undefined) -21%, CCOCN(C(=O)Cn1c(CC(C)C)nc2ccccc21)c1c(C)cccc1CC -14.3%, CCOc1ccccc1Nc1ncnc2c1c(-c1ccccc1)cn2-c1ccc(OC)cc1 0.349%, Cn1c(=O)cc(OCC(=O)N2CCN(c3ccc(F)cc3)CC2)c2ccccc21 -9.89%, O=C1c2[nH]nc(-c3ccccc3O)c2C(c2ccc(Cl)cc2)N1CCc1ccccc1 (centres undefined) -20.7%, Cc1ccc(-c2cn3cccnc3n2)cc1NC(=O)Cc1ccccc1 13.2%, O=S(=O)(c1ccccc1)c1nc(-c2ccccc2)oc1N1CCN(c2cccc(Cl)c2)CC1 -8.07%, CCc1ccc(NC(=O)COCc2cc(-c3ccc(F)cc3)on2)cc1 -8.55%, O=C(CSCc1cnn(-c2ccccc2)c1-n1cccc1)NCc1ccccc1Br -2.56%, Cc1cc(C)cc(NC(=O)c2ncn(-c3ccccc3)n2)c1 -15.9%, Cc1c(Cl)cccc1NC(=O)C(C)N(c1ccccc1)S(C)(=O)=O (centres undefined) -16.1%, CCc1ccc(NC(=O)N(Cc2cn(CC)c3ccccc23)C2CCCCC2)cc1 1.71%, COc1cccc(NC(=O)C2CCN(c3cc(C)nc4c(-c5ccc(Cl)cc5)c(C)nn34)CC2)c1 8.51%, O=C(COc1ccc(F)cc1)NC1CC(=O)N(c2ccc3c(c2)OCCO3)C1 (centres undefined) -7.93%, COc1ccc(CNC(=O)c2ccc3c(c2)CCN3S(=O)(=O)c2ccc(Cl)cc2)cc1 -14.3%, Cc1ccc(-c2nn3c(=O)cc(CN4CCN(S(=O)(=O)c5ccc(Cl)cc5)CC4)nc3s2)cc1 -7.24%, COc1ccc(Cc2nc3ccc(C(=O)NCCc4ccccc4)cc3o2)cc1 -0.8%, CCc1ccccc1-n1c2c(cc(-c3nc(-c4ccc(Cl)cc4)cs3)c1=O)C(=O)CC(C)(C)C2 -14.5%, CC(=O)N1c2ccc(S(=O)(=O)NCC3CCC(C(=O)Nc4ccc(F)cc4)CC3)cc2CC1C (centres undefined) -13.1%, CCOC(=O)c1c(C)[nH]c(C)c1S(=O)(=O)N1CCN(c2ccc(Cl)cc2)CC1 -13.2%, CCOc1ccc(OCC)c(NS(=O)(=O)c2ccc3[nH]c(=O)ccc3c2)c1 -9.09%, COC[C@@H](c1ccc(C(F)(F)F)cc1)N1CCN(C2(C)CCN(C(=O)c3c(C)ncnc3C)CC2)C[C@H]1C -7.34%, COc1cc2nc(SCC(=O)Nc3cccc(C)c3)n3nc(CCn4c(C)nc5ccccc54)nc3c2cc1OC -13%, CC(NC(=O)C1=Cc2ccccc2OC1)c1ccccc1 (centres undefined) -8.04%, CC(=O)Nc1ccc(NC(=O)Cn2c(=O)ccc3cc(S(=O)(=O)N4CCC(C)CC4)ccc32)cc1 -4.05%, CCCSc1ncc(Cl)c(C(=O)Nc2c(C(=O)c3ccc(F)cc3)oc3ccccc23)n1 -11.6%, CCOc1ccc(CNC(=O)C2CCCN(S(=O)(=O)N(CC)c3ccc(OCC)cc3)C2)cc1 (centres undefined) -12.5%, COc1ccc(-n2ncc(C(=O)Nc3ccc4c(c3)OCCO4)c2C2CCN(C(=O)OC(C)(C)C)CC2)cc1 -32.2%, Cc1ccc(Nc2sc(C(=O)c3ccccc3)c(N)c2S(=O)(=O)c2ccccc2)c(C)c1 -6.81%, COc1ccc(CCNC(=O)c2c(C)nn(-c3ccc(F)cc3)c2-n2cccc2)c(OC)c1OC -33.5%, COc1ccccc1N1CCN(C(=O)Cn2c(=O)n3nc(-c4cccc(C)c4)nc3c3ccccc32)CC1 -11.3%, CC(C)CSc1ccccc1NC(=O)c1sc2nc(-c3ccncc3)ccc2c1N -1.56%, O=C(Cn1cc(S(=O)(=O)Cc2ccccc2F)c2ccccc21)NCc1ccccc1Cl -8.6%, Cc1cc(C)cc(NC(=O)CN2C(=O)CCc3cc(S(=O)(=O)N4CCCCC4)ccc32)c1 6.8%, Cc1nn2c(=O)cc(COC(=O)c3ccc(NC(=O)c4cccs4)cc3)nc2s1 -18.5%, CCOC(=O)c1c(NC(=O)C(C)Oc2ccc(Cl)c(C)c2)sc2c1CCCC2 (centres undefined) -10.8%, CC(C)Cn1c(=O)c2ccccc2n2c(CCC(=O)Nc3ccc(F)c(F)c3)nnc12 -8.8%
